Growth data for one compound are collected here from PubChem BioAssay (NCI).

The subject of one experiment is COLO 205 colon. The experiment is described as follows: NCI-60 one-dose screen, 48 h (100 = growth as untreated, 0 = no growth, -100 = all killed). The following applies: 25 µM.
A further experiment concerns SF-295 CNS. The description is as above. As to conditions: 0.25 µM.

Some structures have more than one record in an assay (separate samples or runs), and their calls can disagree.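 Note: values are percent growth. 100 is the growth of untreated cells, values between 100 and 0 indicate rising inhibition; between -100 and 0 indicates cell death.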 Not every entry of the source has a single result; some have several. Only these are listed. How the source made its calls: active means growth percent below 10; inactive means the rest. An entry can have further records. The screen tested this drug many times, at the concentration stated with the values; one value stands for one run. Marks such as (2×) stand for listed records that agree.

In the case of `COc1cccc2c1C(=O)c1c(O)c3c(c(O)c1C2=O)C[C@@](O)(C(=O)CO)C[C@@H]3OC1CC(N)C(O)C(C)O1` (stereo not given in full), the growth result is “active: -79.4, -88.6 (2×), -96.2, -65.1, -54.6, -90.5, -52.8, -84.4, -81, -87.8, -96.6, -86.3, -72.8, -76.2, -40.7, -73.8, -49.9, -3.45, -46.1, -53.1, -45.2, -50.9, -79.8, -76.6, -57.8%” in the experiment with COLO 205 colon (runs of 1998); “active: -80.7, -61.8, -82.6, -62.6, -84.9, 2.29, -70.6, 3.06, -53.9, 1.76, 2.67, 3.61% and inactive: 12.9%” in the experiment on COLO 205 colon (runs of 1999); “active: -100% (3×), 3.65%” in the experiment on COLO 205 colon (runs of 2000); “inactive: 17.8%, 12.4%” with SF-295 CNS (runs of 2006); “inactive: 13.5, 14.3, 22, 17, 15.7, 15.4, 20.7, 28.7, 21.1, 25.9, 42.6, 25.1, 34.4, 23, 38.4, 17.1, 27.5, 25.8, 22.5, 32.3, 28, 35.4, 17.7, 67.6, 21.4, 22.8, 34.8% and active: -5.95, -6.31, -5.28, 0.876, 0.789, 8.21, 2, -5.62, 7.53, -15.1, -6.02, -5.78, -10.7, 9.64, -30, -7.42%” in the experiment with SF-295 CNS (runs of 2007); “inactive: 39.3 (2×), 11.9, 37.9, 29.3 (2×), 35.3, 29.8, 36.1, 38.9, 20.7, 29.1, 32.8, 35.7, 24.3, 22.3 (2×), 20.5, 19.7, 20.4, 15.4, 31, 107, 22.8, 20.9, 18.5, 12.3, 23.5, 29, 11, 16.5, 11.4, 48, 30.5, 37.2, 43.8, 46.7, 22.7, 19.2, 27.5, 28, 26.4, 26.7% and active: -44.2, -16.8, -6.05, -22.7, 9.69, 8.24, -8.73%” with SF-295 CNS (runs of 2008). The growth entry in the experiment on SF-295 CNS (runs of 2009) is “inactive: 20.9, 24.4, 32.7, 36, 24.8, 30.2, 30 (2×), 26.9, 24 (2×), 27 (2×), 25.6, 46.1, 33.1, 23.2, 27.6, 22.5, 20.7, 23.5, 28.3 (3×), 20.2, 19.9, 13.4, 34, 13.5, 29, 28.8, 36.8, 13.8, 34.9, 41.7, 27.8, 31.3, 35.9, 25.4, 22.6, 13.1, 16.6, 32.3, 55.6, 30.7, 13.2, 36.4, 25.5, 31.1, 37.3, 34.4% and active: 4.01, 9.5, -7.62, 2.17, -27.6, -42.1, -4.22, 7.84, -5.8, 3.39, -12.2, 9.04, 2.06, 6.6, -0.221%”; in the experiment on SF-295 CNS (runs of 2010), “inactive: 17.4, 33.2, 20.7, 25.9, 29.1, 27.4, 26, 21.3, 34.5, 14.7, 26.4, 43.1, 40.9, 50.2, 11.9, 29.7, 20.5 (2×), 16.8, 15.8, 34.1, 22.5, 22.6, 20.8, 17.7, 13, 23.2, 11.8, 18.8 (2×), 32.2, 18.4, 26.7, 15.1, 14.1 (2×), 17.8, 19.9, 17.9% and active: 8.76, 5.49, -10.4, 9.75, 9.07, 9.2, 7.36, -7.36, 7.48, 0.547, -40.4, 6.39, 5.93%”; with SF-295 CNS (runs of 2011) it was “inactive: 20.7, 31.3, 28.7 (2×), 28.8, 35.4, 34.5, 30.7, 20.9 (2×), 23.6, 32.3, 34.9, 18.7, 30.5 (2×), 30.4, 32.7, 31.1 (2×), 36.1, 35.6, 41.2, 39.9, 31.7, 40.4, 41.8, 33.4 (2×), 32.6, 33.3, 14.8, 21.6 (2×), 26.8, 21.9, 17.5, 25.7 (2×), 27.3, 27.8, 27.5, 25.4, 27.7, 19.9, 23.9, 26.7, 36.5, 40.8, 40.1, 33.2, 39.8, 26.3, 26% and active: 8.47%”; with SF-295 CNS (runs of 2012) it was “inactive: 23.6, 15.6, 17.6, 28.1, 32.6, 23.4, 32.3, 30.8, 23.2, 29, 19.4, 31.7, 13.1, 18.4, 18.5, 17.2, 12.2, 21.2, 25.4, 27.4, 32.8, 27.5, 20, 41.7, 25.1, 31.9, 13 (2×), 25.7, 27, 17, 33.2, 15.8, 41.4, 32.7, 12.9, 35.8, 32.9, 15.5, 20.4% and active: 3.08, -1.49, -10.8, 9.59, -0.19, -8.24, 3.78, -28.3, -30, 9.94, -52.3, -6.65, 6.35, -31.5, -2.13, 4.29, 9.28, -25.3%”; in the experiment with SF-295 CNS (runs of 2013) it was “inactive: 10.5, 12.3, 16.9, 15.8, 28.9, 10.6, 19.4, 28.7 (2×), 29.1 (2×), 30.7, 26.8 (2×), 35.8 (2×), 33.9 (2×), 30.9, 29.6, 25.9, 37.2, 31.5, 36, 36.1 (2×), 45.1, 15.5, 34.4, 38.5, 39.9, 33.4, 39.6, 38.9, 24.8, 35, 36.3, 38.3, 32.9, 36.7, 45.3, 51.5, 42.1, 39.1, 46, 43.3, 39, 41.5, 43.9, 50.2, 53.4, 40.1, 43, 44.8, 37.3, 52.3, 39.4, 31, 40.3, 41.6, 50.3, 28.3, 24.3, 25.4, 30.2, 29% and active: 0.505, 5.61, 3.66, -15.5, -4.38, 3.5%”; in the experiment on SF-295 CNS (runs of 2014), “inactive: 31.9, 27.9, 20.7, 23.9 (2×), 14.2, 29.1 (2×), 25.8, 36.4 (2×), 37.1, 26.3, 50.4, 24.8 (2×), 25 (3×), 32.3, 34 (2×), 39.9, 51.1, 30.9, 21.6 (2×), 31.1, 34.2, 26.9, 24.9, 19.9 (2×), 28.3, 35.3, 30.5 (2×), 27.4, 26.5, 30.3, 28.9, 23.4, 27.2, 30, 37.6, 21.2, 28.1, 27.8, 34.1, 30.2, 18.1, 18.5, 18.8, 22.8, 42.3, 31.3, 19.4, 23, 14, 28.2, 31.7, 33.9, 22.6, 29.3, 22.5, 20.5, 29.8, 25.5, 36.1, 21.3, 18, 26.4, 26.7%”. The growth result in the experiment on SF-295 CNS (runs of 2015) is “inactive: 22.5 (2×), 29.6, 37.7, 16.5 (2×), 15.5, 20 (2×), 23.3, 26.1, 22.4 (2×), 30.5, 20.7, 25.9 (2×), 32.5, 25.4 (2×), 21.6, 17.1 (3×), 10.3, 14.4, 20.2, 27.6 (2×), 35.8, 25.7 (2×), 26.3 (3×), 23, 25.8, 20.5 (2×), 27.1, 17.8, 17.5, 16.3, 17.2, 16.1, 23.9, 38.4, 20.9, 28.8, 23.7, 18.4 (2×), 21.4, 21.3, 19.4, 14, 27, 51.7, 25, 27.3, 11.3, 15.8, 20.3, 17.6, 35, 37, 36.6, 37.4, 24.8, 27.8, 23.6, 22.3, 13.9, 16.6, 30.3, 33.3, 34.5, 24.4% and active: 5.29%”; in the experiment on SF-295 CNS (runs of 2016), “inactive: 19.6, 11.7, 16.2, 20.8, 33.4, 33.7 (4×), 35.6, 20.5, 25.4, 29.6, 26.9, 24, 33.8, 24.8, 34.6, 28.1 (2×), 16 (2×), 16.6, 13.2, 24.3, 25.8, 21.3 (2×), 22 (2×), 23.7, 22.8, 30.5 (2×), 27.3, 30.4, 31.5, 49.5, 33.1, 49.7, 30.7, 39.8, 37, 33.3, 36.5, 36.8 (2×), 29.8, 32.7, 29.7, 32.9, 32.5, 36.9, 27.6, 32.3, 49, 31.2, 35.4, 39.5, 40, 40.6, 43, 47.9, 44, 49.8, 46, 42.8 (2×), 50, 34.4, 38.1, 37.5, 40.4, 38.8, 42.2, 36, 41.3, 36.4, 34.1, 35.7% and active: 6.98%, 7.48%”; in the experiment on SF-295 CNS (runs of 2017), “inactive: 35, 35.9, 25.5 (3×), 27.5, 28.9 (2×), 31.7 (2×), 26.9 (2×), 29.1, 21.6, 33 (2×), 29.3, 30.8 (2×), 33.6, 30.2, 31, 23.3, 25.1, 26.3, 26.8, 28.3, 25, 31.8 (2×), 22.5, 31.3, 28.8, 32.6, 25.4 (2×), 37.4, 32.8, 35.4, 28.1, 33.1, 33.8, 36.9 (2×), 30, 27.3 (2×), 31.9, 27.7, 35.8, 26 (2×), 30.5, 41, 46.1, 22.7, 29.6, 24, 27.6 (4×), 32, 26.7, 35.1, 23.5, 30.6, 29.9, 39.4, 31.1, 18.6, 22.9, 29.8, 34.2, 28%”.
